Results are given in words; binding and its absence hold for the method and conditions named. In cells and extracts the contact can be indirect. Some binding calls cover weakened binding; strength is not graded here. For some assays here: Where a sequence is shown, tags or fusion partners need not be part of it. Values belong to the molecule of their own block, whether it stands above or below them.
Experiments:
[1] = target: Vax1(WF/SR) mutant (mouse) (UniProt Q2NKI2); assay: co-IP; lysates of HEK293T cells co-expressing Vax1, Vax1(WF/SR) or Vax2 with GFP-tagged Sdc constructs; IP of the GFP-Sdc complexes and blot with anti-Vax1 / anti-Vax2, or IP with anti-Vax1 and blot with anti-GFP
[2] = target: Ventral anterior homeobox 1 (Vax1), endogenous in E14.5 mouse optic nerve (mouse (endogenous in E14.5 mouse optic nerve)) (UniProt Q2NKI2); assay: co-IP; IP of endogenous Vax1 from E14.5 mouse optic nerve / OS lysate in the presence of free heparin (1 mg/ml)
[3] = target: Ventral anterior homeobox 1 (Vax1), endogenous in E14.5 mouse optic nerve (mouse (endogenous in E14.5 mouse optic nerve)) (UniProt Q2NKI2); assay: co-IP; endogenous proteins of E14.5 mouse optic nerve lysate (10 mM Tris-HCl pH 7.4, 200 mM NaCl, 1% Triton X-100, 1% NP-40); IP with rabbit anti-Vax1 (or goat anti-Sdc2), 4°C 16 hr, protein A-agarose, Western blot; no heparin
GFP-tagged Sdc2 = GFP-tagged Sdc2 (UniProt P43407); assay: co-IP; lysates of HEK293T cells co-expressing Vax1, Vax1(WF/SR) or Vax2 with GFP-tagged Sdc constructs; IP of the GFP-Sdc complexes and blot with anti-Vax1 / anti-Vax2, or IP with anti-Vax1 and blot with anti-GFP
GFP-tagged Sdc1 = target: T1, GFP-tagged Sdc1 (UniProt P18828); assay: as above
T1 sequence: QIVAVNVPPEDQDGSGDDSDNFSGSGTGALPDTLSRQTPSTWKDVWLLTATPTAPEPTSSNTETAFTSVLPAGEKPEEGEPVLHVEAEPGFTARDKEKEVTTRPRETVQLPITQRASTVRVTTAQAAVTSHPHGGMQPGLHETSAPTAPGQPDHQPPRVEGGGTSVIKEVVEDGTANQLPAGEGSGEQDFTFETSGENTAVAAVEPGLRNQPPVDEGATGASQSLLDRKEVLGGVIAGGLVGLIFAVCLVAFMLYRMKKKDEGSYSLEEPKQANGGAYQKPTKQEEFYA

Amino acid sequences for entries named in this document (tags omitted). A change or cut given only in a name is not applied to a line headed by its entry. Chains listed by the source or under a name are the forms on record and can include a tag or linker. Residues count along the entry.
UniProt Q2NKI2: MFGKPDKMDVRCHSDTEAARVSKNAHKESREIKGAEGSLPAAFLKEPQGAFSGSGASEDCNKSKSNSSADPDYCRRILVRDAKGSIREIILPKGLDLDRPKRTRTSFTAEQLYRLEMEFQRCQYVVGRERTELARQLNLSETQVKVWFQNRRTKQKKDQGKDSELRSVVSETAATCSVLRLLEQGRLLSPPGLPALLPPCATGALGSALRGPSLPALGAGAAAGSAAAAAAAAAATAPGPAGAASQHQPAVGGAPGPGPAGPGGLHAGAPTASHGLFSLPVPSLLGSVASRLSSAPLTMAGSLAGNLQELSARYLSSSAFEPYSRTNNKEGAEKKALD
Vax1(WF/SR) mutant (Q2NKI2, form named): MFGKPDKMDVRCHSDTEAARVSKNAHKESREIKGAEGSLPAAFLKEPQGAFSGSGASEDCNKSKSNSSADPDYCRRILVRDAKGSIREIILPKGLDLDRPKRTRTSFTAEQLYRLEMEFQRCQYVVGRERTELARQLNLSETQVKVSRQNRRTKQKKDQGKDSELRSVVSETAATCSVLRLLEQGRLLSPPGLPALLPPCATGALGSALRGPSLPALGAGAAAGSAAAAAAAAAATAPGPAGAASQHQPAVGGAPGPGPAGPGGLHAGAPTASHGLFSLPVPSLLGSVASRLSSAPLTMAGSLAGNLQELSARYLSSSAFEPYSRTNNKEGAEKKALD
UniProt P43407, residues 19-202: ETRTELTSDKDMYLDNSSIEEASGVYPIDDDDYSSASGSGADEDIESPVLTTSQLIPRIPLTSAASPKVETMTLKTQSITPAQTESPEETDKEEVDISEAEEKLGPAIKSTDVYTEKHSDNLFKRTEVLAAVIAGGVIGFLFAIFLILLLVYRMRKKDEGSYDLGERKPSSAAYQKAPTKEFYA
UniProt Q64519, residues 45-442: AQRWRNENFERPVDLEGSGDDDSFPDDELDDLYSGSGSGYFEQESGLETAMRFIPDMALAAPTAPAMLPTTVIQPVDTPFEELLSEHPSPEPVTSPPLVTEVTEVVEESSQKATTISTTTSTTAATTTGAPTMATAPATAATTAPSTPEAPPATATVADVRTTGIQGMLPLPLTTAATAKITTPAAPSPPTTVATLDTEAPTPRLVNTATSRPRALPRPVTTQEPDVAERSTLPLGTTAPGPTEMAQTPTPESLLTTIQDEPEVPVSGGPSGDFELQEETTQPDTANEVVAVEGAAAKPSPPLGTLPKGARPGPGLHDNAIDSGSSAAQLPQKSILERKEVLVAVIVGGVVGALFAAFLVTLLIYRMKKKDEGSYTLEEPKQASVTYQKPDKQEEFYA
UniProt P32114: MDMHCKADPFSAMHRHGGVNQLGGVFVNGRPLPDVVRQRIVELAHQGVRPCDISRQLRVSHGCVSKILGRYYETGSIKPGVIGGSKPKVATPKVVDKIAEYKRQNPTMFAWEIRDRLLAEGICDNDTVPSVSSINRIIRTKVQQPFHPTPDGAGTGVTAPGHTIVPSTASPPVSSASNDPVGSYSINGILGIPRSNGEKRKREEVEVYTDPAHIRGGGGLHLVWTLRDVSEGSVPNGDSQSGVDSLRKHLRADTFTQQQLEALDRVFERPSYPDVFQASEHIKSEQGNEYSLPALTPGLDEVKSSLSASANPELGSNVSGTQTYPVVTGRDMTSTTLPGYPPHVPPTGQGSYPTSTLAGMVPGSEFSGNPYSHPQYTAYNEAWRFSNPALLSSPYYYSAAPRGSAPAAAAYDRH

[4] = target: Ventral anterior homeobox 1 (Vax1), endogenous in E14.5 mouse optic nerve (mouse (endogenous in E14.5 mouse optic nerve)) (UniProt Q2NKI2); assay: co-IP; endogenous proteins of E14.5 mouse optic nerve lysate (10 mM Tris-HCl pH 7.4, 200 mM NaCl, 1% Triton X-100, 1% NP-40); IP with rabbit anti-Vax1 (or goat anti-Sdc2), 4°C 16 hr, protein A-agarose, Western blot; no heparin; remark: listed apart in the source

Molecule: GFP-tagged Sdc2 (from UniProt P43407 19-202)
binding [1]: binds

Molecule: Syndecan 3 (Sdc3), endogenous in E14.5 mouse optic nerve (from UniProt Q64519 45-442)
binding [2]: no binding (condition: with free heparin (1 mg/ml)) | binding [3]: binds

B1: Glypican 1 (Glp1), endogenous in E14.5 mouse optic nerve (protein, UniProt Q9QZF2 24-529)
chain: DPASKSRSCSEVRQIYGAKGFSLSDVPQAEISGEHLRICPQGYTCCTSEMEENLANHSRMELESALHDSSRALQATLATQLHGIDDHFQRLLNDSERTLQEAFPGAFGDLYTQNTRAFRDLYAELRLYYRGANLHLEETLAEFWARLLERLFKQLHPQLLPDDYLDCLGKQAEALRPFGDAPRELRLRATRAFVAARSFVQGLGVASDVVRKVAQVPLAPECSRAIMKLVYCAHCRGVPGARPCPDYCRNVLKGCLANQADLDAEWRNLLDSMVLITDKFWGPSGAESVIGGVHVWLAEAINALQDNKDTLTAKVIQACGNPKVNPHGSGPEEKRRRGKLALQEKPSTGTLEKLVSEAKAQLRDIQDFWISLPGTLCSEKMAMSPASDDRCWNGISKGRYLPEVMGDGLANQINNPEVEVDITKPDMTIRQQIMQLKIMTNRLRGAYGGNDVDFQDASDDGSGSGSGGGCPDDTCGRRVSKKSSSSRTPLTHALPGLSEQEGQKTS
modifications: heparan sulfate (HS) side chains
binding [4]: binds | binding [2]: no binding (condition: with free heparin (1 mg/ml))

More lines, main results first:

binding [2]: binds | binding [3]: binds
Molecule: Pax2 (paired homeobox 2), endogenous in E14.5 mouse optic nerve (from UniProt P32114 1-414)

binding [3]: binds
Molecule: Syndecan 2 (Sdc2), endogenous in E14.5 mouse optic nerve (from UniProt P43407 19-202)
binding [2]: no binding (condition: with free heparin (1 mg/ml))

binding (GFP-tagged Sdc2): binds | binding (GFP-tagged Sdc1): binds
Molecule: Vax1 overexpressed in HEK293T cells (from UniProt Q2NKI2 1-338)
